Test results reported in the antibiotic and cytotoxicity screens of Wong et al. (2023).
The list shows a part of the results.

Key:
[1] = tested on: HSkMC (human skeletal muscle cells); assay: cytotoxicity call (relative viability < 0.9); conditions: 10 µM
[2] = tested on: HepG2; assay: cytotoxicity call (relative viability < 0.9); conditions: 10 µM
[3] = tested on: S. aureus RN4220; assay: growth inhibition call (relative growth <= 0.2); conditions: 50 µM

Compound	cytotoxicity call [1]	cytotoxicity call [2]	growth inhibition call [3]
O=C(N[C@H]1CC[C@@H](CCNS(=O)(=O)c2ccccc2)O[C@@H]1CO)c1cnccn1	inactive	inactive	inactive
C[C@@H]1CN([C@@H](C)CO)C(=O)c2cc(NC(=O)Nc3ccccc3)ccc2O[C@@H](C)CCCCO[C@@H]1CN(C)C(=O)c1ccccc1	inactive	inactive	inactive
C[N+](C)(CCOc1ccccc1)Cc1ccccc1.O=C([O-])c1cc2ccccc2cc1O	inactive	inactive	inactive
COc1ccc(S(=O)(=O)Nc2ccc3c(c2)C(=O)N([C@@H](C)CO)C[C@H](C)[C@@H](CN(C)S(=O)(=O)c2ccc(C)cc2)O3)cc1	inactive	inactive	inactive
C[C@H](CO)N1C[C@H](C)[C@@H](CN(C)S(=O)(=O)c2ccc(F)cc2)Oc2ccc(NC(=O)Nc3ccc(C(F)(F)F)cc3)cc2C1=O	inactive	inactive	inactive
C[C@@H]1CCCCO[C@@H](CN(C)Cc2ccc3c(c2)OCO3)[C@@H](C)CN([C@H](C)CO)C(=O)c2cc(NC(=O)CCC(F)(F)F)ccc2O1	inactive	inactive	inactive
Cc1noc(C)c1S(=O)(=O)Nc1ccc2c(c1)C(=O)N([C@@H](C)CO)C[C@H](C)[C@H](CN(C)Cc1ccc(Cl)c(Cl)c1)OCCCC[C@@H](C)O2	inactive	inactive	inactive
CCCC(=O)Nc1ccc2c(c1)OC[C@H](C)N(Cc1ccc(-c3ccccn3)cc1)C[C@H](C)[C@@H](OC)CN(C)C2=O	inactive	inactive	inactive
C[C@H]1CN([C@@H](C)CO)S(=O)(=O)c2ccc(C#CC3(O)CCCC3)cc2O[C@@H]1CN(C)C(=O)Cc1cccnc1	inactive	inactive	inactive
COc1cccc(S(=O)(=O)N2C[C@@H](O)COC[C@H]3O[C@H](CC(=O)N4CCN(c5ccccc5)CC4)CC[C@@H]32)c1	inactive	inactive	inactive
CNc1nc(OC)cc(OC)n1	inactive	inactive	inactive
O=C(C[C@@H]1CC[C@H]2[C@@H](COC[C@@H](O)CN2S(=O)(=O)c2cccc(Cl)c2)O1)NCCCN1CCOCC1	inactive	inactive	inactive
COc1ccc(S(=O)(=O)N(C)C[C@@H]2Oc3ccc(NC(=O)C4CC4)cc3C(=O)N([C@H](C)CO)C[C@H]2C)cc1	inactive	inactive	inactive
C[C@@H]1CN([C@H](C)CO)C(=O)c2cccc(NC(=O)Nc3cccc4ccccc34)c2O[C@@H]1CN(C)Cc1ccc(Oc2ccccc2)cc1	inactive	inactive	inactive
C[C@@H]1CN([C@H](C)CO)S(=O)(=O)c2ccc(-c3cccnc3)cc2O[C@H]1CN(C)C(=O)NC1CCCC1	inactive	inactive	inactive
C[C@H](CO)N1C[C@H](C)[C@H](CN(C)C(=O)Nc2ccc(C(F)(F)F)cc2)OCCCC[C@H](C)Oc2ccc(N(C)C)cc2C1=O	inactive	inactive	inactive
C[C@@H]1CN([C@@H](C)CO)S(=O)(=O)c2ccc(C3=CCCCC3)cc2O[C@H]1CN(C)Cc1cncnc1	inactive	inactive	inactive
C[C@@H]1CN([C@H](C)CO)S(=O)(=O)c2ccc(C3=CCCC3)cc2O[C@@H]1CN(C)S(=O)(=O)c1ccc(F)cc1	inactive	inactive	inactive
COCC(=O)N1CC[C@]2(CC1)CN(Cc1cccc(c1)OC)[C@H](CO)c1c2c2ccc(cc2n1C)OC	inactive	inactive	inactive
CC(C)NC(=O)N(C)C[C@@H]1Oc2ccc(NC(=O)CCC(F)(F)F)cc2CC(=O)N([C@H](C)CO)C[C@@H]1C	inactive	inactive	inactive
C[C@@H]1CN([C@@H](C)CO)S(=O)(=O)c2ccc(C#C[C@@H](C)O)cc2O[C@H]1CN(C)C(=O)Nc1ccccc1	inactive	inactive	inactive
CNC[C@H]1OCCCC[C@H](C)Oc2ccc(NS(=O)(=O)c3c(C)noc3C)cc2C(=O)N([C@@H](C)CO)C[C@H]1C	inactive	inactive	inactive
COc1ccc(CCNC(=O)[C@@]2(Sc3ccc(C)cc3)CC(=O)N(C(C)C)[C@@H]2c2ccc(CO)cc2)cc1	inactive	inactive	inactive
CC(C)NC(=O)N(C)C[C@H]1Oc2ccc(NC(=O)Nc3ccc4c(c3)OCO4)cc2C(=O)N([C@@H](C)CO)C[C@@H]1C	inactive	inactive	inactive
CCc1ccc(NC(=S)Nc2ccccc2C(C)C)cc1	inactive	inactive	inactive
CCCC(=O)Nc1ccc2c(c1)OC[C@@H](C)N(Cc1ccc(-c3ccccn3)cc1)C[C@@H](C)[C@@H](OC)CN(C)C2=O	inactive	inactive	inactive
O=C(C[C@H]1CC[C@@H]2[C@H](COC[C@H](O)CN2S(=O)(=O)c2ccccc2)O1)N[C@H]1CCN(Cc2ccccc2)C1	inactive	inactive	inactive

Compound	cytotoxicity call [1]	cytotoxicity call [2]	growth inhibition call [3]
O=C1CCC(C(=O)N2CSCC2C(=O)O)N1 (configuration not stated)	inactive	active	inactive
C[C@@H]1CN([C@@H](C)CO)C(=O)c2cc(C#CC3(O)CCCC3)cnc2O[C@@H]1CN(C)C(=O)C1CCOCC1	inactive	inactive	inactive
Cc1nc2c(=O)n(C)c(=O)n(C)c2nc1Cl	active	active	active
COCC(=O)Nc1ccc2c(c1)OC[C@H](C)N(Cc1ccccc1F)C[C@@H](C)[C@@H](OC)CN(C)C2=O	inactive	inactive	inactive
C[C@H](CO)N1C[C@H](C)[C@H](CN(C)Cc2ccccc2)Oc2ccc(NC(=O)Cn3cnnn3)cc2C1=O	inactive	inactive	inactive
COc1cccc(CNC(=O)C[C@@H]2C=C[C@H](NC(=O)C3CCOCC3)[C@@H](CO)O2)c1	inactive	inactive	inactive
CO[C@@H]1CN(C)C(=O)c2ccc(NC(=O)Nc3ccccc3)cc2OC[C@@H](C)N(C(=O)CN(C)C)C[C@H]1C	inactive	inactive	inactive
C[C@H]1CN([C@@H](C)CO)C(=O)Cc2cc(NC(=O)CCC(F)(F)F)ccc2O[C@@H]1CN(C)Cc1ccc(Cl)c(Cl)c1	inactive	inactive	inactive
COc1ccc(NC(=O)N(C)C[C@H]2Oc3ncc(C#C[C@H](C)O)cc3C(=O)N([C@H](C)CO)C[C@@H]2C)cc1	inactive	inactive	inactive
C[C@@H]1CN([C@@H](C)CO)C(=O)Cc2cc(NC(=O)CCN3CCOCC3)ccc2O[C@H]1CN(C)CC1CCCCC1	inactive	inactive	inactive
Cc1noc(C)c1S(=O)(=O)Nc1cccc2c1O[C@H](CN(C)S(=O)(=O)c1ccc(F)cc1)[C@@H](C)CN([C@H](C)CO)C2=O	inactive	inactive	inactive
CO[C@H]1C[C@@H]2CC[C@@H](C)[C@@](O)(O2)C(=O)C(=O)N2CCCC[C@H]2C(=O)O[C@H]([C@H](C)C[C@@H]2CC[C@@H](OCCO)[C@H](OC)C2)CC(=O)[C@H](C)/C=C(\C)[C@@H](O)[C@@H](OC)C(=O)[C@H](C)C[C@H](C)/C=C/C=C/C=C/1C	inactive	inactive	inactive
C[C@@H]1CCCCO[C@@H](CN(C)Cc2ccc3c(c2)OCO3)[C@@H](C)CN([C@@H](C)CO)C(=O)c2cc(NC(=O)CCC(F)(F)F)ccc2O1	inactive	inactive	inactive
Cc1noc(C)c1NC(=O)Nc1ccc2c(c1)CC(=O)N([C@H](C)CO)C[C@@H](C)[C@H](CN(C)S(=O)(=O)c1ccccc1)O2	inactive	inactive	inactive
CCCN(C)C[C@H]1OCCCC[C@@H](C)Oc2ccc(NS(=O)(=O)c3cn(C)cn3)cc2C(=O)N([C@@H](C)CO)C[C@H]1C	inactive	inactive	inactive
C[C@@H]1CCCCO[C@@H](CN(C)CC2CCCCC2)[C@H](C)CN([C@@H](C)CO)C(=O)c2cc(NC(=O)Nc3ccc(C(F)(F)F)cc3)ccc2O1	active	active	inactive
C[C@H]1CN([C@@H](C)CO)C(=O)Cc2cc(NC(=O)CCCCCC(=O)Nc3ccccc3N)ccc2O[C@@H]1CN(C)S(C)(=O)=O	inactive	inactive	inactive
CCCNC(=O)N[C@H]1CC[C@H](CC(=O)N2CCN(C)CC2)O[C@@H]1CO	inactive	inactive	inactive
O=C(O[C@H]1[C@H](O)[C@@H](CO)O[C@H](c2c(O)cc(O)c(C(=O)c3ccc(O)cc3)c2O)[C@H]1OC(=O)c1cc(O)c(O)c(O)c1)c1cc(O)c(O)c(O)c1	inactive	active	inactive
C[C@@H]1CCCCO[C@H](CN(C)Cc2ccc3c(c2)OCO3)[C@@H](C)CN([C@H](C)CO)C(=O)c2cc(NC(=O)C3CCCCC3)ccc2O1	inactive	active	inactive
COc1ccc2c3c([nH]c2c1)[C@@H](CO)N(C[C@]13CN(CC2CCCCC2)C1)S(=O)(=O)c1cn(cn1)C	inactive	inactive	inactive
C[C@H](CO)N1C[C@H](C)[C@H](CN(C)Cc2ccncc2)OCCCC[C@H](C)Oc2ccc(NC(=O)Cc3ccccc3)cc2C1=O	inactive	inactive	inactive
C[C@H]1CCCCO[C@@H](CN(C)C(=O)c2ccccc2)[C@@H](C)CN([C@@H](C)CO)C(=O)c2cc(NS(=O)(=O)c3cccs3)ccc2O1	inactive	inactive	inactive
Cc1n[nH]c(=O)nc1NCCN(C)C	inactive	inactive	inactive
COc1ccc(S(=O)(=O)Nc2cccc3c2O[C@@H](CN(C)C(=O)NC(C)C)[C@@H](C)CN([C@@H](C)CO)C3=O)cc1	inactive	inactive	inactive
C[C@@H]1CN([C@@H](C)CO)C(=O)Cc2cc(NC(=O)CCCN(C)C)ccc2O[C@H]1CN(C)S(=O)(=O)c1ccccc1	inactive	inactive	inactive
Cc1cc(F)ccc1S(=O)(=O)N1CCCO[C@@H]1CNC(=O)C(=O)NCc1ccncc1	inactive	inactive	inactive
